{"source": "PubChem BioAssay (NCI)", "assay_in_all_cases": "DTP human tumour cell line panel, 48 h", "key": {"NCI/ADR-RES ovarian": {"test_system": "NCI/ADR-RES ovarian"}, "NCI-H23 lung": {"test_system": "NCI-H23 lung"}, "CAKI-1 renal": {"test_system": "CAKI-1 renal"}, "CCRF-CEM leukemia": {"test_system": "CCRF-CEM leukemia"}, "SR leukemia": {"test_system": "SR leukemia"}, "MDA-MB-231 breast": {"test_system": "MDA-MB-231 breast"}, "MOLT-4 leukemia": {"test_system": "MOLT-4 leukemia"}, "SF-295 CNS": {"test_system": "SF-295 CNS"}, "K-562 leukemia": {"test_system": "K-562 leukemia"}, "RPMI-8226 leukemia": {"test_system": "RPMI-8226 leukemia"}, "MALME-3M melanoma": {"test_system": "MALME-3M melanoma"}}, "note": "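Step 1: Grow cells in 96-well plates. Step 2: Expose to compound for 48 hours at 5 concentrations. Step 3: Interpolate endpoints linearly; if unreached, use highest concentration. The concentration for 50% growth inhibition is given as GI50.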 The source holds more than one record for some entries. This is not the full list of results. The source may hold further records. For part of these data: Results that share an entry are repeated measurements across runs, samples, wells, individuals or studies. What stands in brackets tells the records apart. A, B and so on number the origins entry by entry.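 TGI is the concentration that stops growth completely.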 For part of these data: A record mostly stands for its own series of concentrations, which the source does not state; some values may only mark the edge of a range."}
{"smiles": "COc1ccc2[nH]cc(/C=C(/C)c3ccncc3)c2c1", "values": [{"measurement": "TGI", "setting": "NCI/ADR-RES ovarian", "result": "> 100 µM and 8.98 µM"}, {"measurement": "TGI", "setting": "NCI-H23 lung", "result": "> 100 µM and 8.5 µM"}]}
{"smiles": "CC1=C2C(=C[C@@](C)(CO)[C@@H]2O)C(=O)[C@](C)(O)C12CC2", "values": [{"measurement": "TGI", "setting": "CAKI-1 renal", "result": "83.4 nM and 11.9 µM"}, {"measurement": "TGI", "setting": "CCRF-CEM leukemia", "result": "3.4 µM and > 100 µM"}, {"measurement": "TGI", "setting": "SR leukemia", "result": "134 nM and > 100 µM"}, {"measurement": "TGI", "setting": "MDA-MB-231 breast", "result": "72.4 nM and 75.5 µM"}, {"measurement": "TGI", "setting": "MOLT-4 leukemia", "result": "442 nM and > 100 µM"}, {"measurement": "TGI", "setting": "NCI-H23 lung", "result": "17.4 nM and 2.18 µM"}, {"measurement": "TGI", "setting": "SF-295 CNS", "result": "9.35 nM and 221 nM"}, {"measurement": "TGI", "setting": "K-562 leukemia", "result": "2.44 µM and > 100 µM"}]}
{"smiles": "O=C1C=C[C@@H](COC2OC(CO)C(O)C(O)C2O)O1", "note": "(some centres not stated)", "values": [{"measurement": "TGI", "setting": "RPMI-8226 leukemia", "result": "8.78 µM and > 100 µM"}]}
{"smiles": "Cc1ccc(-c2cc(-c3ccco3)c(C#N)c(=S)n2C2OC(CO)C(O)C(O)C2O)cc1", "note": "(configuration not stated)", "values": [{"measurement": "GI50", "setting": "MALME-3M melanoma", "result": "9.4 µM [sample A, 1 test] and > 100 µM [sample B, 1 test]"}]}
